# Data from patent publication US20210238308A1 (Chugai, published 2021).
# T1: PRYSPRY domain of mouse TRIM21 with N-terminal 6xHis tag (mouse)
# T1 construct: Expressed in E. coli; also called mTRIM21; mouse TRIM21.PRYSPRY
# T1 chain: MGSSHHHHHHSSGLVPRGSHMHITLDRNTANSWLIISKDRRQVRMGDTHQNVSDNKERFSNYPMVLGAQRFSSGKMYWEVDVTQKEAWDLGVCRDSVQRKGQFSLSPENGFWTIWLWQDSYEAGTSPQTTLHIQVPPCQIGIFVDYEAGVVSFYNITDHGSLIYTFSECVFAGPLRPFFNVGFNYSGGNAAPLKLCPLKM
# T2: PRYSPRY domain of human TRIM21 with N-terminal 6xHis tag (human)
# T2 construct: Expressed in E. coli; also called hTRIM21; human TRIM21.PRYSPRY
# T2 chain: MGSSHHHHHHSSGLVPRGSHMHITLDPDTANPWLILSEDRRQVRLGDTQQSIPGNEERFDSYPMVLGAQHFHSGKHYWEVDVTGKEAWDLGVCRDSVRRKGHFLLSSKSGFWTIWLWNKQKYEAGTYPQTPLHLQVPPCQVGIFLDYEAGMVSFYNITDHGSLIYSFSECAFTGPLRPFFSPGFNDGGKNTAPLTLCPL
# B1: MRAH-G1d/MRAL-KT0 E345H (antibody, human IgG1, kappa)
# heavy: QVQLQESGPGLVRPSQTLSLTCTVSGYSITSDHAWSWVRQPPGRGLEWIGYISYSGITTYNPSLKSRVTMLRDTSKNQFSLRLSSVTAADTAVYYCARSLARTTAMDYWGQGSLVTVSS[human IgG1 constant region with E345H (EU numbers) omitted here]
# light: DIQMTQSPSSLSASVGDRVTITCRASQDISSYLNWYQQKPGKAPKLLIYYTSRLHSGVPSRFSGSGSGTDFTFTISSLQPEDIATYYCQQGNTLPYTFGQGTKVEIKRTVAAPSVFIFPPSDEQLKSGTASVVCLLNNFYPREAKVQWKVDNALQSGNSQESVTEQDSKDSTYSLSSTLTLSKADYEKHKVYACEVTHQGLSSPVTKSFNRGEC
# B2: MRAH-G1d/MRAL-KT0 E345F (antibody, human IgG1, kappa)
# heavy: QVQLQESGPGLVRPSQTLSLTCTVSGYSITSDHAWSWVRQPPGRGLEWIGYISYSGITTYNPSLKSRVTMLRDTSKNQFSLRLSSVTAADTAVYYCARSLARTTAMDYWGQGSLVTVSS[human IgG1 constant region with E345F (EU numbers) omitted here]
# light: B1 light
# B3: MRAH-G1d/MRAL-KT0 D312K (antibody, human IgG1, kappa)
# heavy: QVQLQESGPGLVRPSQTLSLTCTVSGYSITSDHAWSWVRQPPGRGLEWIGYISYSGITTYNPSLKSRVTMLRDTSKNQFSLRLSSVTAADTAVYYCARSLARTTAMDYWGQGSLVTVSS[human IgG1 constant region with D312K (EU numbers) omitted here]
# light: B1 light
# notes: copies: 2 + 2
# B4: MRAH-G1d/MRAL-KT0 D312Q (antibody, human IgG1, kappa)
# heavy: QVQLQESGPGLVRPSQTLSLTCTVSGYSITSDHAWSWVRQPPGRGLEWIGYISYSGITTYNPSLKSRVTMLRDTSKNQFSLRLSSVTAADTAVYYCARSLARTTAMDYWGQGSLVTVSS[human IgG1 constant region with D312Q (EU numbers) omitted here]
# light: B1 light
# notes: copies: 2 + 2
# B5: MRAH-G1d/MRAL-KT0 E345I (antibody, human IgG1, kappa)
# heavy: QVQLQESGPGLVRPSQTLSLTCTVSGYSITSDHAWSWVRQPPGRGLEWIGYISYSGITTYNPSLKSRVTMLRDTSKNQFSLRLSSVTAADTAVYYCARSLARTTAMDYWGQGSLVTVSS[human IgG1 constant region with E345I (EU numbers) omitted here]
# light: B1 light
# B6: MRAH-G1d/MRAL-KT0 D312I (antibody, human IgG1, kappa)
# heavy: QVQLQESGPGLVRPSQTLSLTCTVSGYSITSDHAWSWVRQPPGRGLEWIGYISYSGITTYNPSLKSRVTMLRDTSKNQFSLRLSSVTAADTAVYYCARSLARTTAMDYWGQGSLVTVSS[human IgG1 constant region with D312I (EU numbers) omitted here]
# light: B1 light
# notes: copies: 2 + 2
# B7: MRAH-G1d/MRAL-KT0 D312P (antibody, human IgG1, kappa)
# heavy: QVQLQESGPGLVRPSQTLSLTCTVSGYSITSDHAWSWVRQPPGRGLEWIGYISYSGITTYNPSLKSRVTMLRDTSKNQFSLRLSSVTAADTAVYYCARSLARTTAMDYWGQGSLVTVSS[human IgG1 constant region with D312P (EU numbers) omitted here]
# light: B1 light
# notes: copies: 2 + 2
# B8: MRAH-G1d/MRAL-KT0 E345T (antibody, human IgG1, kappa)
# heavy: QVQLQESGPGLVRPSQTLSLTCTVSGYSITSDHAWSWVRQPPGRGLEWIGYISYSGITTYNPSLKSRVTMLRDTSKNQFSLRLSSVTAADTAVYYCARSLARTTAMDYWGQGSLVTVSS[human IgG1 constant region with E345T (EU numbers) omitted here]
# light: B1 light
# B9: MRAH-G1d/MRAL-KT0 E345N (antibody, human IgG1, kappa)
# heavy: QVQLQESGPGLVRPSQTLSLTCTVSGYSITSDHAWSWVRQPPGRGLEWIGYISYSGITTYNPSLKSRVTMLRDTSKNQFSLRLSSVTAADTAVYYCARSLARTTAMDYWGQGSLVTVSS[human IgG1 constant region with E345N (EU numbers) omitted here]
# light: B1 light
# B10: MRAH-G1d/MRAL-KT0 D312V (antibody, human IgG1, kappa)
# heavy: QVQLQESGPGLVRPSQTLSLTCTVSGYSITSDHAWSWVRQPPGRGLEWIGYISYSGITTYNPSLKSRVTMLRDTSKNQFSLRLSSVTAADTAVYYCARSLARTTAMDYWGQGSLVTVSS[human IgG1 constant region with D312V (EU numbers) omitted here]
# light: B1 light
# notes: copies: 2 + 2
# B11: MRAH-G1d/MRAL-KT0 E345D (antibody, human IgG1, kappa)
# heavy: QVQLQESGPGLVRPSQTLSLTCTVSGYSITSDHAWSWVRQPPGRGLEWIGYISYSGITTYNPSLKSRVTMLRDTSKNQFSLRLSSVTAADTAVYYCARSLARTTAMDYWGQGSLVTVSS[human IgG1 constant region with E345D (EU numbers) omitted here]
# light: B1 light
# B12: MRAH-G1d/MRAL-KT0 D312R (antibody, human IgG1, kappa)
# heavy: QVQLQESGPGLVRPSQTLSLTCTVSGYSITSDHAWSWVRQPPGRGLEWIGYISYSGITTYNPSLKSRVTMLRDTSKNQFSLRLSSVTAADTAVYYCARSLARTTAMDYWGQGSLVTVSS[human IgG1 constant region with D312R (EU numbers) omitted here]
# light: B1 light
# notes: copies: 2 + 2
# B13: MRAH-G1d/MRAL-KT0 D312T (antibody, human IgG1, kappa)
# heavy: QVQLQESGPGLVRPSQTLSLTCTVSGYSITSDHAWSWVRQPPGRGLEWIGYISYSGITTYNPSLKSRVTMLRDTSKNQFSLRLSSVTAADTAVYYCARSLARTTAMDYWGQGSLVTVSS[human IgG1 constant region with D312T (EU numbers) omitted here]
# light: B1 light
# notes: copies: 2 + 2
# B14: MRAH-G1d/MRAL-KT0 E345Q (antibody, human IgG1, kappa)
# heavy: QVQLQESGPGLVRPSQTLSLTCTVSGYSITSDHAWSWVRQPPGRGLEWIGYISYSGITTYNPSLKSRVTMLRDTSKNQFSLRLSSVTAADTAVYYCARSLARTTAMDYWGQGSLVTVSS[human IgG1 constant region with E345Q (EU numbers) omitted here]
# light: B1 light
# Target: T1, PRYSPRY domain of mouse TRIM21 with …
# Assay: SPR, Protein L capture
row,mTRIM21 binding level ratio (variant/control antibody),Binder
1,2.64,B1
2,2.43,B2
3,2.96,B3
4,2.85,B4
5,2.52,B5
6,2.88,B6
7,2.96,B7
8,2.85,B8
9,2.76,B9
10,2.59,B10
11,2.26,B11
12,2.74,B12
13,2.75,B13
14,2.92,B14

# Target: T3, human FcRn (human, UniProt P55899 in part; P61769 in part, limits assumed)
# T3 construct: also called hFcRn
# Assay: SPR, Protein L capture
row,hFcRn binding level ratio (variant/control antibody),Binder
1,0.67,B1
2,0.92,B2
3,0.9,B3
4,0.16,B4
5,0.88,B5
6,0.46,B6
7,0.2,B7
8,0.91,B8
9,0.79,B9
10,0.73,B10
11,0.92,B11
12,0.05,B12
13,0.94,B13
14,0.29,B14

# Target: T2, PRYSPRY domain of human TRIM21 with …
# Assay: SPR, Protein L capture
row,hTRIM21 binding level ratio (variant/control antibody),Binder
1,0.591,B1
2,0.496,B2
3,1.19,B3
4,1.11,B4
5,0.518,B5
6,1.05,B6
7,1.11,B7
8,0.887,B8
9,0.665,B9
10,0.937,B10
11,0.908,B11
12,1.17,B12
13,1.11,B13
14,0.657,B14
